The list shows a part of the results.

In the assay the target is T1, RBFOX1 RRM (Homo sapiens) (UniProt Q9NWB1).
T1 sequence: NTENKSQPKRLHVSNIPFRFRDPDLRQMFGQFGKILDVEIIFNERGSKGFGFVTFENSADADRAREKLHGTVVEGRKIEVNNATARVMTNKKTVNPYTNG
The assay is described as follows: EMSA. Particulars: HiTS-Eq, 1 nM pool, 10 min; buffer printed only for the single-RNA assays: 10 mM Tris pH 7.5, 150 mM NaCl, 3.4 mM EDTA, 0.001% NP-40, 30 C. On the technique in general: In EMSA bound probe runs differently from free probe, usually more slowly.
In turn, “GGGAGACCGGAAUUCAGAUUGUCCCCCGAUCUUAAAUCCCGUCGUAGCCACCA / CAATCTGAATTCCGGTCTCCC / TGGTGGCTACGACGGGATT” had a binding signal (KA relative to UGCAUGU) of 0.0119.

Sequence “GGGAGACCGGAAUUCAGAUUGUCCCCCGCCAUUAAAUCCCGUCGUAGCCACCA / CAATCTGAATTCCGGTCTCCC / TGGTGGCTACGACGGGATT” yielded a binding signal (KA relative to UGCAUGU) of 0.00676. With “GGGAGACCGGAAUUCAGAUUGUCCAUUCCGGUUAAAUCCCGUCGUAGCCACCA / CAATCTGAATTCCGGTCTCCC / TGGTGGCTACGACGGGATT” the figure was 0.0034; with “GGGAGACCGGAAUUCAGAUUGUCCCCCGACCUUAAAUCCCGUCGUAGCCACCA / CAATCTGAATTCCGGTCTCCC / TGGTGGCTACGACGGGATT”, 0.00671. With “GGGAGACCGGAAUUCAGAUUGUCCGGUCCCAUUAAAUCCCGUCGUAGCCACCA / CAATCTGAATTCCGGTCTCCC / TGGTGGCTACGACGGGATT” the figure was 0.00232; with “GGGAGACCGGAAUUCAGAUUGUCCCCCCCCGUUAAAUCCCGUCGUAGCCACCA / CAATCTGAATTCCGGTCTCCC / TGGTGGCTACGACGGGATT”, 0.0132. Under “GGGAGACCGGAAUUCAGAUUGUCCCCCCAUAUUAAAUCCCGUCGUAGCCACCA / CAATCTGAATTCCGGTCTCCC / TGGTGGCTACGACGGGATT” stands 0.000342; under “GGGAGACCGGAAUUCAGAUUGUCCUCCCCUCUUAAAUCCCGUCGUAGCCACCA / CAATCTGAATTCCGGTCTCCC / TGGTGGCTACGACGGGATT”, 0.0188.

Sequence “GGGAGACCGGAAUUCAGAUUGUCCGGUCCAGUUAAAUCCCGUCGUAGCCACCA / CAATCTGAATTCCGGTCTCCC / TGGTGGCTACGACGGGATT” registered a binding signal (KA relative to UGCAUGU) of 0.00709. With “GGGAGACCGGAAUUCAGAUUGUCCCCCCACCUUAAAUCCCGUCGUAGCCACCA / CAATCTGAATTCCGGTCTCCC / TGGTGGCTACGACGGGATT” the figure was 0.00966; with “GGGAGACCGGAAUUCAGAUUGUCCCCCCCUAUUAAAUCCCGUCGUAGCCACCA / CAATCTGAATTCCGGTCTCCC / TGGTGGCTACGACGGGATT”, 0.00102. With “GGGAGACCGGAAUUCAGAUUGUCCGGUUCCCUUAAAUCCCGUCGUAGCCACCA / CAATCTGAATTCCGGTCTCCC / TGGTGGCTACGACGGGATT” the figure was 0.0193.

The sequence “GGGAGACCGGAAUUCAGAUUGUCCGGUCUGAUUAAAUCCCGUCGUAGCCACCA / CAATCTGAATTCCGGTCTCCC / TGGTGGCTACGACGGGATT” yielded a binding signal (KA relative to UGCAUGU) of 0.0219. With “GGGAGACCGGAAUUCAGAUUGUCCCUCCCACUUAAAUCCCGUCGUAGCCACCA / CAATCTGAATTCCGGTCTCCC / TGGTGGCTACGACGGGATT” the figure was 0.000116.

In turn, “GGGAGACCGGAAUUCAGAUUGUCCGGUACCCUUAAAUCCCGUCGUAGCCACCA / CAATCTGAATTCCGGTCTCCC / TGGTGGCTACGACGGGATT” showed a binding signal (KA relative to UGCAUGU) of 0.0171. For the sequence “GGGAGACCGGAAUUCAGAUUGUCCUCCCGAAUUAAAUCCCGUCGUAGCCACCA / CAATCTGAATTCCGGTCTCCC / TGGTGGCTACGACGGGATT”, the binding signal (KA relative to UGCAUGU) is 0.0168.

Turning to “GGGAGACCGGAAUUCAGAUUGUCCUCCCCACUUAAAUCCCGUCGUAGCCACCA / CAATCTGAATTCCGGTCTCCC / TGGTGGCTACGACGGGATT”, the binding signal (KA relative to UGCAUGU) amounted to 0.0143. In the case of “GGGAGACCGGAAUUCAGAUUGUCCGGUCUAAUUAAAUCCCGUCGUAGCCACCA / CAATCTGAATTCCGGTCTCCC / TGGTGGCTACGACGGGATT”, the binding signal (KA relative to UGCAUGU) is 0.0114. “GGGAGACCGGAAUUCAGAUUGUCCUCCCCAAUUAAAUCCCGUCGUAGCCACCA / CAATCTGAATTCCGGTCTCCC / TGGTGGCTACGACGGGATT” gave a binding signal (KA relative to UGCAUGU) of 0.00319. Under “GGGAGACCGGAAUUCAGAUUGUCCCCCGACAUUAAAUCCCGUCGUAGCCACCA / CAATCTGAATTCCGGTCTCCC / TGGTGGCTACGACGGGATT” stands 0.00391; under “GGGAGACCGGAAUUCAGAUUGUCCCCUCCCGUUAAAUCCCGUCGUAGCCACCA / CAATCTGAATTCCGGTCTCCC / TGGTGGCTACGACGGGATT”, 0.00643; under “GGGAGACCGGAAUUCAGAUUGUCCUCCCAUAUUAAAUCCCGUCGUAGCCACCA / CAATCTGAATTCCGGTCTCCC / TGGTGGCTACGACGGGATT”, 0.00271. Under “GGGAGACCGGAAUUCAGAUUGUCCGGUCCUGUUAAAUCCCGUCGUAGCCACCA / CAATCTGAATTCCGGTCTCCC / TGGTGGCTACGACGGGATT” stands 0.00897; under “GGGAGACCGGAAUUCAGAUUGUCCCCCACCGUUAAAUCCCGUCGUAGCCACCA / CAATCTGAATTCCGGTCTCCC / TGGTGGCTACGACGGGATT”, 0.00705.

The record behind these values is paper PMC9911399.
